Measurements reported in the supplement of paper PMC12217912.
The list shows a part of the results. The full chains were built here from the parent and the listed change. Inactive controls read about 0.05.

B1: TEV protease; numbered along this chain (parent)
chain: MGESLFKGPRDYNPISSSICHLTNESDGHTTSLYGIGFGPFIITNKHLFRRNNGTLVVQSLHGVFKVKDTTTLQQHLVDGRDMIIIRMPKDFPPFPQKLKFREPQREERICLVTTNFQTKSMSSMVSDTSCTFPSGDGIFWKHWIQTKDGQCGSPLVSTRDGFIVGIHSASNFTNTNNYFTSVPKNFMELLTNQEAQQWVSGWRLNADSVLWGGHKVFMVKPEEPFQPVKEATQL

Variants of: B1
Assay: raw area under fraction-flipped curve 0-4 h after induction (AUC4h, not background-subtracted), DNA-recorder readout of cleavage of the substrate (dimensionless); higher = more cleavage of the substrate by the protease variant
Settings: temperature: 34 °C; time window: 0-4 h after rhamnose induction
Procedure: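 In vivo DNA recorder in E. coli TOP10(DE3) ΔrhaA at 34 °C. Each TEVp single-site mutant (parent TEVp 0) is paired with a single-site variant of the 7-mer TEVs (canonical ENLYFQ|S). The substrate sits between flexible linkers in a Bxb1-sfGFP-TEVs-SsrA fusion, so cleavage stabilises Bxb1 and speeds flipping of a recombination array, read by NGS. The value is the raw area under the fraction-flipped curve over 0-4 h after rhamnose induction (AUC4h), with ≥20 reads per time point. It is not background-subtracted; inactive controls average about 0.047.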
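Also: Bxb1 expression induced with 0.2% (w/v) L-rhamnose at OD600 near 0.5, cultures sampled hourly, flipped fraction per protease–substrate barcode pair counted by paired-end Illumina sequencing.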

MGESLFKGPRDYNPISSSICHLTNESDGHTTSLYGIGFGPFIITNKHLFRRNNGTLVVQSLHGVFKVKDTTTLQQHLVDGRDMIIIRMPKDFPPFPQKLKFREPQREERICLVTTNFQTKSMSSMVSDTSCTFPSGDGIFWKHWIQTKDGQCGSPLVSTRDGFIVGIHSASNFTNTNNYFTSVPINFMELLTNQEAQQWVSGWRLNADSVLWGGHKVFMVKPEEPFQPVKEATQL [K185I]
area with substrate ENLYFQA: 0.108
area with substrate ENLYFQH: 0.0854
area with substrate ENLYFQI: 0.0593
area with substrate ENLYFQK: 0.0704
area with substrate ENLYFQL: 0.063
area with substrate ENLYFQM: 0.172
area with substrate ENLYFQN: 0.0837
area with substrate ENLYFQP: 0.0759
area with substrate ENLYFQR: 0.0499
area with substrate ENLYFQS: 0.107
area with substrate ENLYFQW: 0.079
area with substrate ENLYFQY: 0.0416

MGESLFKGPRDYNPISSSICHLTNESDGHTTSLYGIGFGPFIITNKHLFRRNNGTLVVQSLHGVFKVKDTTTLQQHLVDGRDMIIIRMPKDFPPFPQKLKFREPQREERICLVTTNFQTKSMSSMVSDTSCTFPSGDGIFWKHWIQTKDGQCGSPLVSTRDGFIVGIHSASNFTPTNNYFTSVPKNFMELLTNQEAQQWVSGWRLNADSVLWGGHKVFMVKPEEPFQPVKEATQL [N175P]
area with substrate ENLYFQA: 0.0792
area with substrate ENLYFQC: 0.0759
area with substrate ENLYFQD: 0.0662
area with substrate ENLYFQF: 0.0494
area with substrate ENLYFQH: 0.0457
area with substrate ENLYFQI: 0.0563
area with substrate ENLYFQK: 0.0471
area with substrate ENLYFQL: 0.0483
area with substrate ENLYFQM: 0.0595
area with substrate ENLYFQP: 0.0521
area with substrate ENLYFQS: 0.0579
area with substrate ENLYFQV: 0.0648
area with substrate ENLYFQY: 0.0672

MGESLFKGPRDYNPISSSICHLTNESDGHTTSLYGIGFGPFIITNKHLFRRNNGTLVVQSLHGVFKVKDTTTLQQHLVDGRDMIIIRMPKDFPPFPQKLKFREPQREERICLVTTNFQTKSMSSMVSDTSCTFPSGDGIFWKHWIQTKDGQCGSPLVSTRDGFIVGIHSASNFTYTNNYFTSVPKNFMELLTNQEAQQWVSGWRLNADSVLWGGHKVFMVKPEEPFQPVKEATQL [N175Y]
area with substrate ENLYFQA: 0.0827
area with substrate ENLYFQC: 0.0991
area with substrate ENLYFQD: 0.039
area with substrate ENLYFQG: 0.0726
area with substrate ENLYFQH: 0.0685
area with substrate ENLYFQK: 0.0583
area with substrate ENLYFQL: 0.0506
area with substrate ENLYFQM: 0.063
area with substrate ENLYFQR: 0.0598
area with substrate ENLYFQS: 0.0818
area with substrate ENLYFQV: 0.0588
area with substrate ENLYFQW: 0.0519
area with substrate ENLYFQY: 0.0688

MGESLFKGPRDYNPISSSICHLTNESDGHTTSLYGIGFGPFIITNKHLFRRNNGTLVVQSLHGVFKVKDTTTLQQHLVDGRDMIIIRMPKDFPPFPQKLKFREPQREERICLVTTNFQTKSMSSMVSDTSCTFPSGDGIFWKHWIQTKDGQCGSPLVSTRDGFIVGIHSASNFTMTNNYFTSVPKNFMELLTNQEAQQWVSGWRLNADSVLWGGHKVFMVKPEEPFQPVKEATQL [N175M]
area with substrate ENLYFQA: 0.0925
area with substrate ENLYFQC: 0.136
area with substrate ENLYFQG: 0.0768
area with substrate ENLYFQH: 0.0816
area with substrate ENLYFQI: 0.0659
area with substrate ENLYFQK: 0.0585
area with substrate ENLYFQL: 0.0626
area with substrate ENLYFQM: 0.0455
area with substrate ENLYFQN: 0.0737
area with substrate ENLYFQR: 0.0646
area with substrate ENLYFQS: 0.0811
area with substrate ENLYFQT: 0.0559
area with substrate ENLYFQW: 0.0662
area with substrate ENLYFQY: 0.0555

MGESLFKGPRDYNPISSSICHLTNESDGHTTSLYGIGFGPFIITNKHLFRRNNGTLVVQSLHGVFKVKDTTTLQQHLVDGRDMIIIRMPKDFPPFPQKLKFREPQREERICLVTTNFQTKSMSSMVSDTSCTFPSGDGIFWKHWIQTKDGQCGSPLVSTRDGFIVGIHSASNFTNTNNYFTSFPKNFMELLTNQEAQQWVSGWRLNADSVLWGGHKVFMVKPEEPFQPVKEATQL [V183F]
area with substrate ENLYFQA: 0.0814
area with substrate ENLYFQC: 0.104
area with substrate ENLYFQG: 0.0973
area with substrate ENLYFQH: 0.0685
area with substrate ENLYFQI: 0.0673
area with substrate ENLYFQK: 0.0609
area with substrate ENLYFQL: 0.0811
area with substrate ENLYFQM: 0.0966
area with substrate ENLYFQN: 0.0797
area with substrate ENLYFQR: 0.0608
area with substrate ENLYFQS: 0.0955
area with substrate ENLYFQT: 0.061
area with substrate ENLYFQV: 0.048
area with substrate ENLYFQW: 0.062
area with substrate ENLYFQY: 0.112

MGESLFKGPRDYNPISSSICHLTNESDGHTTSLYGIGFGPFIITNKHLFRRNNGTLVVQSLHGVFKVKDTTTLQQHLVDGRDMIIIRMPKDFPPFPQKLKFREPQREERICLVTTNFQTKSMSSMVSDTSCTFPSGDGIFWKHWIQTKDGQCGSPLVSTRDGFIVGIHSASNFTNTNNYFTSYPKNFMELLTNQEAQQWVSGWRLNADSVLWGGHKVFMVKPEEPFQPVKEATQL [V183Y]
area with substrate ENLYFQA: 0.0767
area with substrate ENLYFQC: 0.0852
area with substrate ENLYFQD: 0.0667
area with substrate ENLYFQE: 0.0716
area with substrate ENLYFQI: 0.0401
area with substrate ENLYFQK: 0.0581
area with substrate ENLYFQL: 0.0543
area with substrate ENLYFQM: 0.0691
area with substrate ENLYFQN: 0.0598
area with substrate ENLYFQR: 0.0516
area with substrate ENLYFQS: 0.0782
area with substrate ENLYFQW: 0.057
area with substrate ENLYFQY: 0.0559

MGESLFKGPRDYNPISSSICHLTNESDGHTTSLYGIGFGPFIITNKHLFRRNNGTLVVQSLHGVFKVKDTTTLQQHLVDGRDMIIIRMPKDFPPFPQKLKFREPQREERICLVTTNFQTKSMSSMVSDTSCTFPSGDGIFWKHWIQTKDGQCGSPLVSTRDGFIVGIHSASNFTNTNNYFTSVPKWFMELLTNQEAQQWVSGWRLNADSVLWGGHKVFMVKPEEPFQPVKEATQL [N186W]
area with substrate ENLYFQA: 0.116
area with substrate ENLYFQC: 0.089
area with substrate ENLYFQD: 0.0592
area with substrate ENLYFQF: 0.0794
area with substrate ENLYFQH: 0.0864
area with substrate ENLYFQK: 0.0584
area with substrate ENLYFQM: 0.0805
area with substrate ENLYFQN: 0.0593
area with substrate ENLYFQR: 0.05
area with substrate ENLYFQS: 0.0894
area with substrate ENLYFQW: 0.0576

MGESLFKGPRDYNPISSSICHLTNESDGHTTSLYGIGFGPFIITNKHLFRRNNGTLVVQSLHGVFKVKDTTTLQQHLVDGRDMIIIRMPKDFPPFPQKLKFREPQREERICLVTTNFQTKSMSSMVSDTSCTFPSGDGIFWKHWIQTKDGQCGSPLVSTRDGFIVGIHSASNFTNTNNYFTSVPKNFMELLTIQEAQQWVSGWRLNADSVLWGGHKVFMVKPEEPFQPVKEATQL [N193I]
area with substrate ENLYFQA: 0.0833
area with substrate ENLYFQD: 0.0621
area with substrate ENLYFQE: 0.0686
area with substrate ENLYFQH: 0.0731
area with substrate ENLYFQM: 0.0784
area with substrate ENLYFQN: 0.0717
area with substrate ENLYFQS: 0.0867

MGESLFKGPRDYNPISSSICHLTNESDGHTTSLYGIGFGPFIITNKHLFRRNNGTLVVQSLHGVFKVKDTTTLQQHLVDGRDMIIIRMPKDFPPFPQKLKFREPQREERICLVTTNFQTKSMSSMVSDTSCTFPSGDGIFWKHWIQTKDGQCGSPLVSTRDGFIVGIHSASNFTNWNNYFTSVPKNFMELLTNQEAQQWVSGWRLNADSVLWGGHKVFMVKPEEPFQPVKEATQL [T176W]
area with substrate ENLYFQA: 0.062
area with substrate ENLYFQH: 0.0465
area with substrate ENLYFQI: 0.0633
area with substrate ENLYFQK: 0.0524
area with substrate ENLYFQM: 0.0551
area with substrate ENLYFQR: 0.0543
area with substrate ENLYFQS: 0.0635
area with substrate ENLYFQT: 0.0515
area with substrate ENLYFQW: 0.073
area with substrate ENLYFQY: 0.0618
